PubChem BioAssay AID1645882 (National Center for Advancing Translational Sciences (NCATS), 2021)
The whole screen tested about 16,000 compounds, of which about 120 (0.75%) were called active. Another 4% or so got no clear call; they are omitted. Calls follow the shape of the dose curve; as a rule, active = well fitted inhibition curve with a large enough effect; inconclusive = small, poorly fitted or top-dose-only effect; inactive = no such curve, though single readings can be large or run the other way. The list shows a part of the results. Where a SMILES comes first, the peptide text is derived from it.

target: Rap guanine nucleotide exchange factor 3 (Homo sapiens) (UniProt O95398); experiment: Validation qHTS for antagonist of cAMP-regulated guanine nucleotide exchange factor 3 (EPAC1); settings: EPAC1 Rap1B-BODIPY-GDP exchange, fluorescence; activity change, negative = inhibition: at the top concentration;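 also: plate controls were DMSO for no effect and ATA control for full effect; nearly all actives have a fitted effect of over 75% in size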
How it was run: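 EPAC1 (100 nM) mixed with 250 nM RAP1B-BODIPY-GDP and 50 uM GDP; compounds in concentration series, 5 min at room temperature. Fluorescence (ex 480/em 540 nm) read every 5 min for 30 min; normalized to ATA control and DMSO.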

Sequence of UniProt O95398 (O95398 whole entry, looked up): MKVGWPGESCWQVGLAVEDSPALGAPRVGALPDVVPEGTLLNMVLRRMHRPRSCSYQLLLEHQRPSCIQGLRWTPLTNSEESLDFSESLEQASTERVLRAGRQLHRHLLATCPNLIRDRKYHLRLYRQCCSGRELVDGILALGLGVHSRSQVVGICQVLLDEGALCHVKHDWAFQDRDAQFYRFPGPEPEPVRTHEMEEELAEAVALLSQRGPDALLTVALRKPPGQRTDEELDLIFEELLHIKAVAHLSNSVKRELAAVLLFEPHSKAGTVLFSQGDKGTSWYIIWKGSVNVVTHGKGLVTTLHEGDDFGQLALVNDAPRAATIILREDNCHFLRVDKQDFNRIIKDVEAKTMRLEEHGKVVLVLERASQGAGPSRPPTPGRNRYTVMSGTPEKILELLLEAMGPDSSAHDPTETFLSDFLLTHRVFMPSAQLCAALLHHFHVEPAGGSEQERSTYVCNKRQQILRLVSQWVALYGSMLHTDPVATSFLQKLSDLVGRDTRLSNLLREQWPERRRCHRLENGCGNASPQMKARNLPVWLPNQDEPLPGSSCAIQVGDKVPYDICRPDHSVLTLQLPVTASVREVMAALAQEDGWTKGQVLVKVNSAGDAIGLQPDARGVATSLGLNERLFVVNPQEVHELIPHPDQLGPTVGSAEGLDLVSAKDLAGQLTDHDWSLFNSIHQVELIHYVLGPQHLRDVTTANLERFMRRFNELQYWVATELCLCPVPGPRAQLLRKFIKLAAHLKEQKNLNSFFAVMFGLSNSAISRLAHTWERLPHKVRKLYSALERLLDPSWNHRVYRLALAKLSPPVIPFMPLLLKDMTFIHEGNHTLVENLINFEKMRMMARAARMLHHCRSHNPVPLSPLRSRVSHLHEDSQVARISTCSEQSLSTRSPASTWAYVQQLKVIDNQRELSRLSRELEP

SMILES	activity change, negative = inhibition
COc1cc(CCN)ccc1O	inactive: 11%
O=C(Oc1ccccc1)N1CCC2(CCN(Cc3nccs3)CC2)CC1	inactive: 25.1%
C#CCN[C@H](C)Cc1ccccc1	inactive: -1.49% [at 75.8 µM]
CCCN(CCC)[C@@H]1CCc2cccc(O)c2C1	inactive
C[C@]12CC[C@H]3[C@@H](CCC4=CC(=O)CC[C@@]43C)[C@@H]1CC[C@H]2O	inactive: -3.2%
NCc1cc(=O)[nH]o1	inactive
C[C@H]1CCC/C=C/C2C[C@H](O)C[C@H]2[C@H](O)/C=C/C(=O)O1 (stereo partly specified)	inactive: 22.6% [at 201 µM]
CN1C(=O)NC(=O)C(C)(C2=CCCCC2)C1=O (stereo unspecified)	inactive
CC(C)CN1CC2(CCN(C(=O)Oc3ccccc3)CC2)C1	inactive: 6.58%
CCN1C[C@@]2(COC)C3[C@@H](OC)C4[C@@H]1[C@@]3(C1C[C@@]3(O)[C@H](OC(=O)c5ccccc5)C1[C@]4(OC(C)=O)[C@@H](O)[C@@H]3OC)[C@@H](OC)C[C@H]2O (stereo partly specified)	inactive: -10.5%
COC(=O)C(c1ccccc1)C1CCCCN1 (stereo unspecified)	inactive: 7.71%
COC(=O)c1cncn1C(C)c1ccccc1 (stereo unspecified)	inactive: 16.2%
ClC=C(Cl)Cl	inactive: 11.5%
C[C@H]1C(=O)O[C@@H]2CCN3CC=C(COC(=O)[C@](C)(O)[C@]1(C)O)[C@H]23	inactive: 7.09%
CCCN1C[C@H](C)N([C@H](c2ccc(C(=O)N(CC)CC)cc2)c2cccc(OC)c2)C[C@H]1C	inactive
Clc1ccc([C@@H]2C[C@H]3CC[C@@H]2N3)cn1	inactive
O=C(O)COc1cc(Cl)c(Cl)cc1Cl	inactive: 3.94%
O=[N+]([O-])/N=C1\NCCN1Cc1ccc(Cl)nc1	inactive
CC(=O)OCC1=C(C(=O)O)N2C(=O)[C@@H](N)[C@H]2SC1	inactive: 12.5% [at 75.8 µM]
CCC1C(=O)OCC1Cc1cncn1C (stereo unspecified)	inactive
CC(C)C[C@H](CN)CC(=O)O	inactive: 13.7%
COc1cc2c(cc1OC)[C@@H]1C(=O)c3ccc4oc(C(C)C)cc4c3OC1CO2 (stereo partly specified)	inactive: 3.72%

SMILES	activity change, negative = inhibition
CN(C)C(=S)SSC(=S)N(C)C	inactive
C[C@H](NC(=O)[C@@H](N)Cc1ccc(O)cc1)C(=O)N[C@@H](Cc1ccccc1)C(=O)N[C@@H](Cc1ccccc1)C(N)=O (H-YAFF-NH2)	inactive: 6.98% [at 15.3 µM]
CC1CC[C@@]2(NC1)O[C@@H]1C[C@H]3C4CC=C5C[C@@H](O)CC[C@]5(C)C4CC[C@]3(C)[C@H]1[C@@H]2C (stereo partly specified)	inactive: 13.2%
CC(C)(C)NCC(O)c1ccccc1Cl (stereo unspecified)	inactive
CC1(C(=O)O)C2CCC(O2)C1(C)C(=O)O (stereo unspecified)	inactive: -6.05% [at 75.8 µM]
Oc1ccc([C@H]2CNCc3c2ccc(O)c3O)cc1O	inactive: -17.1%
CCCN(CCC)[C@@H]1CCc2c(OC)cccc2[C@@H]1C	inactive: 7.71%
CN1[C@@H]2CC[C@H]1CC(OC1c3ccccc3CCc3ccccc31)C2 (stereo partly specified)	inactive: 4.92% [at 75.8 µM]
O=C1CCC[C@H]2[C@H]3CCCN4CCCC(=CN12)[C@@H]34	inactive: -2.42%
COc1cc2c(c(OC)c1OC)-c1ccc(O)c(=O)cc1[C@@H](NC(C)=O)CC2	inactive: 18.2%
O=C1CCCC2[C@@H]3CCCN4CCC[C@@H](CN12)C34 (stereo partly specified)	inactive: 7.89%
CC(C)C1C(=O)N2CCC[C@H]2[C@]2(O)O[C@](NC(=O)[C@@H]3C=C4c5cccc6[nH]cc(c56)C[C@H]4N(C)C3)(C(C)C)C(=O)N12 (stereo partly specified)	inactive: 37.4%
CN1CCCC(=C(c2cccs2)c2cccs2)C1	inactive: 11.5%
C#C[C@]1(O)C=C[C@H]2[C@@H]3CCC4=CC(=O)CC[C@@H]4[C@H]3CC[C@@]21CC	inactive: 18.5%
Cc1nnc2ccc(-c3cccc(C(F)(F)F)c3)nn12	inactive: -1.15%
COc1cc2c(cc1-c1cc3cc4ccoc4cc3oc1=O)OCO2	inactive: -0.936%
CCCC[C@@H](C)[C@@H](OC(=O)C[C@@H](CC(=O)O)C(=O)O)[C@H](C[C@@H](C)C[C@H](O)CCCC[C@@H](O)C[C@H](O)[C@H](C)N)OC(=O)C[C@H](CC(=O)O)C(=O)O	inactive: 8.81%
COC(=O)[C@H]1[C@@H](OC(=O)c2ccccc2)C[C@@H]2CC[C@H]1N2C	inactive: 28% [at 320 µM]
CCC1C(=O)OC[C@H]1Cc1cncn1C (stereo partly specified)	inactive: 11.8%
CCN(CC)C(=O)[C@@H]1C=C2c3cccc4[nH]cc(c34)C[C@H]2N(C)C1	inactive
CCNC1(c2cccs2)CCCCC1=O (stereo unspecified)	inactive: 9.09% [at 75.8 µM]
CC(C)C[C@H](NC(=O)[C@H](Cc1ccccc1)NC(=O)CNC(=O)[C@@H](NC(=O)[C@@H](N)Cc1ccc(O)cc1)[C@H](C)O)C(=O)N[C@H](C(=O)O)[C@H](C)O	inactive: 28% [at 15.3 µM]

SMILES	activity change, negative = inhibition
CCNC(C)Cc1cccc(C(F)(F)F)c1 (stereo unspecified)	inactive: 19.1%
C1CCC(NC2CCCCC2)CC1	inactive: 15.3%
COc1ccc(C(=O)CN2CCOCC2)cc1	inactive: 12.2%
CCC1(c2cccc(O)c2)CCCCN(C)C1 (stereo unspecified)	inactive: 7.27% [at 75.8 µM]
CC(C)[C@]1(O)[C@@H](OC(=O)c2ccc[nH]2)[C@@]2(O)[C@@]3(C)C[C@]4(O)O[C@@]5([C@H](O)[C@@H](C)CC[C@]35O)[C@@]2(O)C41C	inactive: 30.4%
C[C@H](N)Cc1c[nH]c2ccc(OCc3cccs3)cc12	inactive: 7.14%
CC(=O)OCC1=C(C(=O)O)N2C(=O)C(NC(=O)CCCC(N)C(=O)O)C2SC1 (stereo unspecified)	inactive: -28.3%
C[C@@H]1CC[C@H]2[C@@H](C)C(=O)O[C@@H]3O[C@@]4(C)CC[C@@H]1[C@]32OO4	inactive: 5.39%
CC(=O)C1=C(O)[C@@H]2[C@@H]3c4c[nH]c5cccc(c45)C[C@@H]3C(C)(C)N2C1=O	inactive: -21.5%
CS(=N)(=O)CC[C@H](N)C(=O)O (stereo partly specified)	inactive: -3.53% [at 75.8 µM]
NC(=NCCc1ccc(I)cc1)SCCCc1cnc[nH]1	inactive
CC(C)(C)C(=O)C(Oc1ccc(Cl)cc1)n1cncn1 (stereo unspecified)	inactive: 13.5%
CC(=O)OO	inactive: 10.8%
CN(C)[C@H](Cc1ccccc1)c1ccccc1	inactive: 19.2%
COc1ccc(CNC(=O)/C=C\c2ccc3[nH]cc(CCN(C)C)c3c2)cc1	inactive: -4.78%
CNC(C)C(O)c1ccccc1 (stereo unspecified)	inactive: 20.8%
CC(C)Oc1cccc(NC(=O)c2ccccc2C(F)(F)F)c1	inactive: -28% [at 320 µM]
CN1CC[C@@]23CCCC[C@@H]2[C@@H]1Cc1ccc(O)cc13	inactive: -2.1%
COc1cc(C[C@@H](C)N)c(OC)cc1Br	inactive: 29.8% [at 320 µM]
O=NN1CCCC1c1cccnc1 (stereo unspecified)	inactive: 25.4%
CC(C)c1cc2c(c(O)c1O)[C@]1(C(=O)O)CCCC(C)(C)C1CC2 (stereo partly specified)	inactive: -3.56%
CCN(C(C)=O)c1cccc(-c2ccnc3c(C#N)cnn23)c1	inactive: 7.61%

SMILES	activity change, negative = inhibition
CNC(C)[C@H](O)c1ccccc1 (stereo partly specified)	inactive: 8.93%
NCCc1c[nH]c2ccc(O)cc12	inactive
CC(=O)OC[C@]12C[C@H](OC(=O)CC(C)C)C(C)=C[C@H]1O[C@H]1[C@H](O)[C@@H](OC(C)=O)[C@@]2(C)[C@]12CO2	inactive: -8.52%
O=[N+]([O-])c1ccc([As](=O)(O)O)cc1	inactive: 5.68%
C1CC[C@H]([C@@]23C[C@H](C[C@H]4CCCN[C@H]42)[C@@H]2CCCCN2C3)NC1	inactive: -8.1%
CCOCCOC(C)=O	inactive: 16.1% [at 320 µM]
CC[N+](CC)(CC)CC	inactive
CCC(COC(=O)c1cc(OC)c(OC)c(OC)c1)(c1ccccc1)N(C)C (stereo unspecified)	inactive: -20.6%
O=c1cccc2n1CC1CC2CN2CCCCC12 (stereo unspecified)	inactive: 17.1%
CCCN(CCC)CCc1ccc(O)c(O)c1	inactive
c1cnc(N2CC3(CCNCC3)C2)nc1	inactive: -1.42%
Cc1nc2cnc(N3CCNCC3)nc2n(C)c1=O	inactive: 8.74%
CC1(C)N([O-])[N+](=O)C1(C)Br (stereo unspecified)	inactive: 10.4%
COc1ccc2c(c1)/C(=C/c1cnc[nH]1)C(=O)N2	inactive: 7.95% [at 75.8 µM]
C[C@@]12C=CC(=O)C=C1CCC1C2CC[C@]2(C)C(=O)CCC12 (stereo partly specified)	inactive: 8.79%
COc1ccc2c(c1)[nH]c1c(C)nccc12	inactive
Ic1ccccc1CNC1C2CCN(CC2)C1C(c1ccccc1)c1ccccc1 (stereo unspecified)	inactive: -1.26% [at 75.8 µM]
O=C1c2ccccc2C(=O)c2ccccc21	inactive
C=C1[C@@H](C)[C@H]2[C@H](Cc3ccccc3)NC(=O)[C@]23OC(=O)/C=C/[C@H](O)CCC[C@@H](C)C/C=C/[C@H]3[C@@H]1O	inactive: 36%
Nc1ccccc1	inactive: 21.7%
CCOC(OCC)P(=O)(O)CCCN	inactive
ClC1=C(Cl)C2(Cl)C3C4C=CC(C4)C3C1(Cl)C2(Cl)Cl (stereo unspecified)	inactive: 10.8%

SMILES	activity change, negative = inhibition
c1cncc([C@H]2CCCCN2)c1	inactive: 10.9%
CC[N+]1(CCOC(=O)C(O)(c2ccccc2)c2ccccc2)CCCCC1	inactive: 13.4%
C/C=C(/C)C(=O)OC1CC[C@]2(C)C3CCC4[C@]5(O)CC(O)[C@]6(O)C(CN7CC(C)CCC7[C@]6(C)O)[C@]5(O)C[C@@]42O[C@]13O (stereo partly specified)	inactive: 10.9%
Cc1c(Cl)c(=O)oc2cc(OP(=O)(OCCCl)OCCCl)ccc12	inactive: 7.74%
COC(=O)COc1cc(Cl)c(Cl)cc1Cl	inactive: 13.7%
COc1ccc(C(=O)O[C@H]2CC[C@@]3(C)C4CCC5[C@]6(O)C[C@H](O)[C@@]7(O)C(CN8C[C@@H](C)CC[C@H]8[C@@]7(C)O)[C@]6(O)C[C@@]53O[C@@]42O)cc1OC (stereo partly specified)	inactive
CN(C)C1C(=O)C(C(N)=O)=C(O)[C@@]2(O)C(=O)C3=C(O)c4c(O)cccc4[C@](C)(O)C3C(O)C12 (stereo partly specified)	inactive: 2.85%
C[N+]1(C)[C@@H]2CC[C@H]1CC(OC(=O)C(CO)c1ccccc1)C2 (stereo partly specified)	inactive
C[C@@H](CO)NC(=O)[C@@H]1C=C2c3cccc4[nH]cc(c34)C[C@H]2N(C)C1	inactive
Clc1ccc(C(OCCN2CCCCC2)c2ccccc2)cc1 (stereo unspecified)	inactive
COC(=O)N1CCN(C(=O)Cc2ccc(Cl)c(Cl)c2)[C@H](CN2CCCC2)C1	inactive: -4.42%
CN1CCN(C(=O)OC2c3nccnc3C(=O)N2c2ccc(Cl)cn2)CC1 (stereo unspecified)	inactive
CCCSP(=O)(OCC)SCCC	inactive: 43.1% [at 320 µM]
NCCc1c[nH]c2ccccc12	inactive
COc1ccc2c(CCN)c[nH]c2c1	inactive: 38.9%
CN1C2CCC1CC(OC(c1ccccc1)c1ccccc1N)C2 (stereo unspecified)	inactive
CCC[C@@H]1CC2=CC(=O)CC[C@]2(C)[C@@H]2CC[C@@]3(C)[C@H](CC[C@]3(O)CCC(=O)O)[C@H]12	inactive: 12.1%
CCO/N=C(\CC)C1=C(O)CC(c2c(C)cc(C)cc2C)CC1=O (stereo unspecified)	inactive: 19.8% [at 320 µM]
